# Experimental data from article PMC4336329 (PLoS ONE, 2015).
# Out of some 310,000 compounds screened, about 14,000 (4.5%) showed an effect of 50% or more. Effects have a minus sign here. This is one part of the list.
# Molecular target: human ether-à-go-go-related gene (hERG) potassium channel (human, UniProt Q12809)
# Assay: primary screen, population patch clamp on CHO cells stably expressing hERG
# 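Note: peak tail current of the secondary pulse compared with the same well before compound.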
# Chain of human ether-à-go-go-related gene (hERG) potassium channel (Q12809 whole entry, looked up): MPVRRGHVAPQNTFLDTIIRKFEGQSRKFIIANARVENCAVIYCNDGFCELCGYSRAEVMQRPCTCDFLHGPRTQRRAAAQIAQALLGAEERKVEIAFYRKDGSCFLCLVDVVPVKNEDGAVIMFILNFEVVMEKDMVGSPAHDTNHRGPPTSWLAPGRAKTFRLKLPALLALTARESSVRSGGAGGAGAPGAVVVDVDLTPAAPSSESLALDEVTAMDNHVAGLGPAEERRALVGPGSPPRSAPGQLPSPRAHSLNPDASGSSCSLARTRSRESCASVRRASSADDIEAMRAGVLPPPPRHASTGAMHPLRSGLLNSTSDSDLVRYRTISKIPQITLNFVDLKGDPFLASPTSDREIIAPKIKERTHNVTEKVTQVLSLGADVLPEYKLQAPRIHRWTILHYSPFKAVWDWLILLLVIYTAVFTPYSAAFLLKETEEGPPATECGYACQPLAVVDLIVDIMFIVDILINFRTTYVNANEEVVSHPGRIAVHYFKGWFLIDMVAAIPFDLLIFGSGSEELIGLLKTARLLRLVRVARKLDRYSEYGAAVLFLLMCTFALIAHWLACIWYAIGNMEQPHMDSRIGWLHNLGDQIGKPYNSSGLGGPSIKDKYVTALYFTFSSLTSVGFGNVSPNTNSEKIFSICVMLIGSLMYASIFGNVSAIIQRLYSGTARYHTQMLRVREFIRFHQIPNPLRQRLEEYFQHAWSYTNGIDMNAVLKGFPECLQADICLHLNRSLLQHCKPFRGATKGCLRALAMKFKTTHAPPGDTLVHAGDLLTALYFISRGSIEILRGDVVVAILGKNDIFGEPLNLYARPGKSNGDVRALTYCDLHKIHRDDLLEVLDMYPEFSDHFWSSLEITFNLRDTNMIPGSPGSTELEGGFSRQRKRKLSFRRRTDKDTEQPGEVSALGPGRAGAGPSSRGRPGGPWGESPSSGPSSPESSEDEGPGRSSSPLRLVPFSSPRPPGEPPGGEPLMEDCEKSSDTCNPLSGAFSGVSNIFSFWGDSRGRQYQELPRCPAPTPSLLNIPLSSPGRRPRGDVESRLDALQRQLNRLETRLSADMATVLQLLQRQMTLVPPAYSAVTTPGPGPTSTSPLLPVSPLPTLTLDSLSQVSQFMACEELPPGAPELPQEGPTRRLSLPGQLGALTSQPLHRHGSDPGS
row,SMILES,"hERG current change (%, negative = inhibition) at 10uM"
1,COC(=O)c1ccc(N2CCN(S(=O)(=O)c3ccccc3)CC2)c([N+](=O)[O-])c1,-14.1%
2,CCn1ncc(C2=NOC(C(=O)N3CCC(C(N)=O)CC3)C2)c1C (stereo not drawn),-5.42%
3,COc1ccc(-c2csc(-c3cccs3)n2)c(OC)c1,15.8%
4,CCOC(=O)c1cc2c(=O)n3ccccc3nc2n(CCCOC)c1=NC(C)=O,-27.5%
5,CCOC(=O)c1c[nH]c(=S)n1C,21.8%
6,CC(=O)Nc1ccc(S(=O)(=O)N(CC(=O)O)Cc2ccccc2)cc1,-12.6%
7,COc1ccc(C)c2sc(N(CCCN(C)C)C(=O)c3ccc4c(c3)OCCO4)nc12.Cl,-75.6%
8,CS(=O)(=O)N1CCC(C(=O)Nc2ccc3c(c2)OCCO3)CC1,-0.89%
9,CN(C)c1ccc(/C=N/n2cnn(Cc3ccccc3Cl)c2=S)cc1,24.2%
10,COC(=O)C1CCN(C(=O)C2CCC(=O)N(CCc3cccc(F)c3)C2)CC1 (stereo not drawn),-1.44%
11,Cc1cc(O)c(NC(=O)c2cccc([N+](=O)[O-])c2)cc1C,7.25%
12,CCOP(=O)(OCC)C1(O)C(=O)Nc2ccc(Br)cc21 (stereo not drawn),-4.13%
13,CC1CCN(c2c(NCC3CCC(C(=O)N4CCCC(C)C4)CC3)c(=O)c2=O)CC1 (stereo not drawn),2.75%
14,CC(NC(=O)COC(=O)/C=C/c1ccc(Cl)cc1)c1ccccc1 (stereo not drawn),18.7%
15,CCc1cccc2c(C#N)cn(CC(=O)NCc3ccco3)c12,13.5%
16,CCOC(=O)c1c(NC(=O)CN2C(=O)C(=O)N(CC(C)C)C2=O)sc(C)c1CC,12.6%
17,CC1=Nc2ccccc2N=C(NC(=O)/C=C/C(=O)O)C1c1ccccc1 (stereo not drawn),2.53%
18,COc1ccc(N(CC(=O)NCc2ccncc2)S(=O)(=O)c2ccc(C)c([N+](=O)[O-])c2)cc1,-50.9%
19,CCC1=NN(C(=O)COc2ccccc2)C(O)(c2ccncc2)C1 (stereo not drawn),19.5%
20,Cc1nc2ccccc2c(=O)n1NC(=O)C1CC1C (stereo not drawn),6.2%
21,O=C(C1COc2ccccc2O1)N1CCn2c(nc3ccccc32)C1 (stereo not drawn),-29.6%
22,CCc1nc(N2CCN(C(=O)CCl)CC2)c2c3c(sc2n1)CC(C)CC3 (stereo not drawn),-21.2%
23,CC(C)n1cnc2c(NCc3ccc(S(N)(=O)=O)cc3)nc(NCc3ccc(S(N)(=O)=O)cc3)nc21,10.2%
24,CCOC(=O)C1=C(CN2CCN(C(=O)c3ccco3)CC2)NC(=O)NC1c1ccccc1 (stereo not drawn),-43.7%
25,COc1ccc(S(=O)(=O)NCCN2CCNC2=O)cc1OC,9.1%
26,CC(=O)N1c2ccc(S(=O)(=O)NCC3CCC(C(=O)N4CCC(C)CC4)CC3)cc2CC1C (stereo not drawn),11.3%
27,O=[N+]([O-])c1ccc(Cc2nnc(-c3ccccc3Cl)o2)cc1,-15.5%

row,SMILES,"hERG current change (%, negative = inhibition) at 10uM"
1,O=C(NC(Cc1ccccc1)C(=O)O)/C(=C\c1ccc(F)cc1)NC(=O)c1ccco1 (stereo not drawn),13.9%
2,O=C(NCC1CCCN1S(=O)(=O)c1cccs1)C(=O)Nc1ccc(F)cc1F (stereo not drawn),-22.4%
3,CCCNC(=O)COc1ccc(S(=O)(=O)Nc2ccc(C)cc2)cc1,-20.2%
4,O=C1C2CCCN2C(=S)N1c1ccccc1 (stereo not drawn),2.74%
5,N#Cc1ccsc1NC(=O)COc1ccc(-c2nnco2)cc1,1.95%
6,COc1ccc(C(CNC(=O)c2cccc(S(=O)(=O)N3CCCC3)c2)N2CCCC2)cc1 (stereo not drawn),-22.9%
7,CC(=O)Oc1ccc(/C=N/NC(=O)CCSc2ccccc2)cc1,-8.83%
8,Cc1cc(NC(=O)CSc2nc3c(c(=O)n2Cc2ccccc2)SC(C)C3)no1 (stereo not drawn),10.8%
9,NC(=O)CC(NC(=O)Cc1cccc2ccccc12)c1ccc(NCCc2ccccc2F)c([N+](=O)[O-])c1 (stereo not drawn),10.1%
10,COc1cc(NC(=O)CCS(=O)(=O)c2ccc3c(c2)oc(=O)n3C)cc(OC)c1OC,19.8%
11,O=[N+]([O-])c1cccnc1Sc1ccc(Cl)cc1,-11%
12,CCOC(=O)CN1C(=O)S/C(=C\c2ccc(-c3ccc(C(=O)O)c(Cl)c3)o2)C1=O,4%
13,COc1cc(CN2CCCC(N3CCc4ccccc4C3)C2)c(Cl)cc1O (stereo not drawn),-48.6%
14,O=c1cc(CO)oc(C(Nc2ccccn2)c2ccccc2Cl)c1O (stereo not drawn),-0.246%
15,O=C(CN1C(=O)CC(c2ccccc2)=Nc2ccccc21)NCc1ccco1,-3.96%
16,CCc1ccc(S(=O)(=O)N2CC(=O)Nc3ccccc32)cc1,-22.9%
17,COc1ccccc1N1CCN(S(=O)(=O)CCNC(=O)C23CC4CC(CC(C4)C2)C3)CC1,-14.2%
18,COc1cc(NC(=S)NC(=O)CC(C)C)ccc1NC(=O)c1cc2ccccc2o1,19.7%
19,NC(=O)NCCCC(=O)OCC(=O)c1ccc2ccccc2c1,13.4%
20,COCc1cc(C)nc2sc(C(=O)OC)c(N)c12,4.96%
21,Nc1ccccc1Sc1ccccc1[N+](=O)[O-],-15.4%
22,CNC(=O)c1c(NC(=O)CCS(=O)(=O)c2ccc(C)cc2)sc(C)c1C,-5.82%
23,O=C(CN1C(=O)/C(=C/c2ccccc2F)Oc2ccccc21)N1CCN(c2ccccn2)CC1,7.12%
24,N#Cc1ccsc1NC(=O)CN1CCN(c2ccccn2)CC1,-36.1%
25,O=C(O)CCCC[C@@H]1SC[C@@H]2NC(=O)N[C@@H]21,1.92%
26,Cc1ccc(N2C(=O)[C@@H]3[C@H](C2=O)[C@H]2C=CC=NN2[C@@H]3C(=O)Nc2ccc(Cl)cc2)cc1,-21.4%
27,CC1CCCC(C)N1c1nnc(N)s1 (stereo not drawn),10.1%
